Some of the results follow.

The assay has as its target T1, RBFOX1 RRM (Homo sapiens) (UniProt Q9NWB1).
T1 sequence: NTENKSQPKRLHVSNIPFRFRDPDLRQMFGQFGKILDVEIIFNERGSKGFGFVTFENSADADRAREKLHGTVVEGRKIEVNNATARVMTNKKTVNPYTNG
The assay is described as follows: EMSA. Particulars: HiTS-Eq, 1 nM pool, 10 min; buffer printed only for the single-RNA assays: 10 mM Tris pH 7.5, 150 mM NaCl, 3.4 mM EDTA, 0.001% NP-40, 30 C. In general terms: In EMSA bound probe runs differently from free probe, usually more slowly.
As to “GGGAGACCGGAAUUCAGAUUGUCCCCCCACAUUAAAUCCCGUCGUAGCCACCA / CAATCTGAATTCCGGTCTCCC / TGGTGGCTACGACGGGATT”, the binding signal (KA relative to UGCAUGU) worked out at 0.0035. The same measure for “GGGAGACCGGAAUUCAGAUUGUCCUCCCCCGUUAAAUCCCGUCGUAGCCACCA / CAATCTGAATTCCGGTCTCCC / TGGTGGCTACGACGGGATT”: 0.00554; for “GGGAGACCGGAAUUCAGAUUGUCCCCACACCUUAAAUCCCGUCGUAGCCACCA / CAATCTGAATTCCGGTCTCCC / TGGTGGCTACGACGGGATT”: 0.000441; for “GGGAGACCGGAAUUCAGAUUGUCCGGUCUCGUUAAAUCCCGUCGUAGCCACCA / CAATCTGAATTCCGGTCTCCC / TGGTGGCTACGACGGGATT”: 0.0151.

For “GGGAGACCGGAAUUCAGAUUGUCCUCCCGACUUAAAUCCCGUCGUAGCCACCA / CAATCTGAATTCCGGTCTCCC / TGGTGGCTACGACGGGATT”, the binding signal (KA relative to UGCAUGU) was found to be 0.00732.

For the sequence “GGGAGACCGGAAUUCAGAUUGUCCCCCAAUCUUAAAUCCCGUCGUAGCCACCA / CAATCTGAATTCCGGTCTCCC / TGGTGGCTACGACGGGATT”, the binding signal (KA relative to UGCAUGU) stood at 0.000456.

Turning to “GGGAGACCGGAAUUCAGAUUGUCCUGUCUCCUUAAAUCCCGUCGUAGCCACCA / CAATCTGAATTCCGGTCTCCC / TGGTGGCTACGACGGGATT”, the binding signal (KA relative to UGCAUGU) is 0.0254. For “GGGAGACCGGAAUUCAGAUUGUCCCCUCCCCUUAAAUCCCGUCGUAGCCACCA / CAATCTGAATTCCGGTCTCCC / TGGTGGCTACGACGGGATT”, the binding signal (KA relative to UGCAUGU) was found to be 0.000225. Turning to “GGGAGACCGGAAUUCAGAUUGUCCGGUCUACUUAAAUCCCGUCGUAGCCACCA / CAATCTGAATTCCGGTCTCCC / TGGTGGCTACGACGGGATT”, the binding signal (KA relative to UGCAUGU) was 0.00661.

(Values after paper PMC9911399.)
